Measured values reported in PubChem BioAssay AID504333 (National Center for Advancing Translational Sciences (NCATS), 2011).
In all, about 360,000 compounds went through this assay and about 16,000 (4.4%) were called active. The shares of active, inactive and inconclusive entries below differ from those in the screen. The call rests on the fitted dose curve; in most records, active means well fitted inhibition curve with a large enough effect; inconclusive means small, poorly fitted or top-dose-only effect; inactive means no such curve, though single readings can be large or run the other way. Potencies beside an inconclusive call are fits to weak or partial responses and may not hold up.

target: Bromodomain adjacent to zinc finger domain protein 2B (Homo sapiens) (UniProt Q9UIF8); assay: qHTS Assay for Inhibitors of BAZ2B; conditions: AlphaScreen BAZ2B-H3K14Ac peptide displacement; series mostly up to 114 µM; further: nearly all actives have a fitted effect of over 60% in size
In short: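 Complex of BAZ2B and biotin-H3K14Ac (50 nM apiece) forms over 30 min at RT, then faces library compounds up to 110 uM for another 30 min; AlphaScreen beads added, 20 min dark incubation, luminescence read.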
Potency means the concentration at half of the fitted maximal effect; tags describe the fitted curve by direction and shape.

UniProt Q9UIF8, sequence (Q9UIF8 whole entry, looked up, the tested form may be a part): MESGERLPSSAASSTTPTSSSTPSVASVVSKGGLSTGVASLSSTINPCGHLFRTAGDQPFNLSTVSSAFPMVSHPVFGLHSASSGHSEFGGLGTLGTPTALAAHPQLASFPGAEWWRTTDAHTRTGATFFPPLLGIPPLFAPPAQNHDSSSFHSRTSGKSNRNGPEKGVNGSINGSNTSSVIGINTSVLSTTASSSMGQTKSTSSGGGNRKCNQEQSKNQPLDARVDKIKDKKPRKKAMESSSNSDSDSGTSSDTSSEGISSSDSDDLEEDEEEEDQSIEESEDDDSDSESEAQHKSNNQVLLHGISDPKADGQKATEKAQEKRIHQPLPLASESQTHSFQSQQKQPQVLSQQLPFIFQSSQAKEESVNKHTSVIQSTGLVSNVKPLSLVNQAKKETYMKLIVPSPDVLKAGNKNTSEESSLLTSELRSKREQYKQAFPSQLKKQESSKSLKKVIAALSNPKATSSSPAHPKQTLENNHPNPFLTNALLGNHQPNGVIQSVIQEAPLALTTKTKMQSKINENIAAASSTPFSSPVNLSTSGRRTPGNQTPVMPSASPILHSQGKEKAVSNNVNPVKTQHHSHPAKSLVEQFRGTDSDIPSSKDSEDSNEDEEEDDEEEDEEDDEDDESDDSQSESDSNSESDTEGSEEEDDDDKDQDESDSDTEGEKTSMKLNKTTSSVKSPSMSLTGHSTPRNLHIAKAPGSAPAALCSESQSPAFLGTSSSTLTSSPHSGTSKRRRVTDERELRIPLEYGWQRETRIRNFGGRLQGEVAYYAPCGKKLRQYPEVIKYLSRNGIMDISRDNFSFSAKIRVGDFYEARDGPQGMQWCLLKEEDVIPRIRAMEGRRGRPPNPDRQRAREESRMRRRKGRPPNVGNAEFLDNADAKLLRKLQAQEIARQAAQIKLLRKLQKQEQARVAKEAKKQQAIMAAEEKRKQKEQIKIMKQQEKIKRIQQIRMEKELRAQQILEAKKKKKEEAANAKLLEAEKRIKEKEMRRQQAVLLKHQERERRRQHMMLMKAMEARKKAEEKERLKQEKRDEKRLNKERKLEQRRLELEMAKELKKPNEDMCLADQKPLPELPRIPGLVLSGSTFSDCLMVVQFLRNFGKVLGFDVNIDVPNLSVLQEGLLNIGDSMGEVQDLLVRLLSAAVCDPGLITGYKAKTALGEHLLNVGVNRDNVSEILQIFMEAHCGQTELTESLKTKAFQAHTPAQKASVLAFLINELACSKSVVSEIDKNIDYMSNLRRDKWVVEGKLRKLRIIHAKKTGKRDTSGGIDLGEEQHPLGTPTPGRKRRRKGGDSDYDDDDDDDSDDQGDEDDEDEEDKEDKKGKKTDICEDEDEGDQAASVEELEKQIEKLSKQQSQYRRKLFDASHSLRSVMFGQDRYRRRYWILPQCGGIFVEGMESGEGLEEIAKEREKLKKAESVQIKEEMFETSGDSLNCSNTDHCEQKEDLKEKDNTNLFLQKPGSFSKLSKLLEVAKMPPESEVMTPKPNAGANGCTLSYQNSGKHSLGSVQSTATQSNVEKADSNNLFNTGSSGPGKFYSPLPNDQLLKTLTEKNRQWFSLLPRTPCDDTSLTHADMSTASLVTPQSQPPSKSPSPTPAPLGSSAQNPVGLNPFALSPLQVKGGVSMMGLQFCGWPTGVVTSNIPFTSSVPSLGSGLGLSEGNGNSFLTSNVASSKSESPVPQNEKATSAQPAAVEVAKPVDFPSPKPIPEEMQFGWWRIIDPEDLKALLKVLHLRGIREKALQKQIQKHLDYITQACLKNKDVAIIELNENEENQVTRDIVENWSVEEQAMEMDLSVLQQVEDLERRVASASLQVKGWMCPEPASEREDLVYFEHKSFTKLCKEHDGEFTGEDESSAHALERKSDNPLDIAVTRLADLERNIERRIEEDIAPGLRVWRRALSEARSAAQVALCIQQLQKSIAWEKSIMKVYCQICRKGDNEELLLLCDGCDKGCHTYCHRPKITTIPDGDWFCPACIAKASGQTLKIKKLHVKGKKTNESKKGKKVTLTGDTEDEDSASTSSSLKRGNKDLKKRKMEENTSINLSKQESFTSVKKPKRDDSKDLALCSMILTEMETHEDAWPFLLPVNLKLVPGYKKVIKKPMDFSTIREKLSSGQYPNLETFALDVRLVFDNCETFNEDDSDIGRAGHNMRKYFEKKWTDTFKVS

SMILES	Potency
COc1ccc(NC(=O)NCCCN2CCCC2=O)c(OC)c1	inconclusive: 7.08 µM [inhibitor, single point]
CC1=CC2(O)OCCN(CCO)C2=CC1=O (stereo unspecified)	inconclusive: 56.2 µM [inhibitor, partial curve]
Cn1c(SCC(=O)c2ccccc2)nnc1C1CC1	inactive
COc1ccccc1C(=O)NC(=O)CSc1nnc(N)s1	inconclusive: 56.2 µM [inhibitor, partial curve]
CCC(=O)Oc1ccc(C/C(=N\O)c2ccc(O)cc2O)o1	inconclusive: 79.4 µM [inhibitor, single point]
O=C(CN1CCN(c2ccccc2F)CC1)NCc1ccc(Cl)cc1	inactive
Cc1ccc(S(=O)(=O)NNC(=O)C2CCN(S(=O)(=O)c3ccc(C)cc3)CC2)cc1	inconclusive: 89.1 µM [inhibitor, single point]
Nc1nc(SCC(=O)N2CCCC2)[nH]c(=O)c1-c1ccccc1	inactive
O=C(Cc1cccs1)N/N=C\c1ccc([N+](=O)[O-])s1	inconclusive: 89.1 µM [inhibitor, single point]
Oc1ccc(Cl)cc1N=Nc1ccccc1	active: 31.6 µM
Cc1cnc(=O)[nH]c1SCC(=O)c1ccc(F)cc1	inconclusive: 70.8 µM [inhibitor, single point]
CCc1ccc(C2CC(=O)Nc3c2c(C)nn3-c2nc(C)cc(C)n2)cc1 (stereo unspecified)	inconclusive: 79.4 µM [inhibitor, single point]
C=CCC(Nc1ccco1)c1ccccc1 (stereo unspecified)	inconclusive: 79.4 µM [inhibitor, single point]
CCOC(=O)N1CCC(NC(=O)c2ccccc2C(=O)O)CC1	inactive
COc1cccc(-c2nnc(SCC(=O)Nc3ccc4c(c3)OCCO4)n2Cc2ccco2)c1	inconclusive: 89.1 µM [inhibitor, single point]
Cc1cc(=O)oc2cc(NC(=O)c3cccc(F)c3)ccc12	inactive
COc1cccc(C(C(=O)NC(C)(C)C)N(Cc2ccco2)C(=O)CCC(=O)Nc2cc(C)on2)c1OC (stereo unspecified)	inconclusive: 44.7 µM [inhibitor, partial curve]
CCN(CC)CCOc1nc(C)nc2c1oc1ccccc12	inconclusive: 89.1 µM [inhibitor, single point]
Oc1ccccc1N=N/C(=N/Nc1ccccc1O)c1ccccc1	inconclusive: 89.1 µM [inhibitor, single point]
COc1ccc(OC)c(CCNC(=O)Cn2nc(C)c3c(C)n(-c4ccc(C)cc4)nc3c2=O)c1	active: 50.1 µM
CCCCN(C(=O)CSCc1c(C)noc1C)c1c(N)n(CCC)c(=O)[nH]c1=O	inactive
Cc1cccn2c(=O)c(C=O)c(Nc3ccccc3)nc12	inactive
Cc1ccc(C(C(=O)Nc2ccc3c(c2)OCO3)N(C)C(=O)Cc2c[nH]c3ccccc23)cc1 (stereo unspecified)	inconclusive: 25.1 µM [inhibitor, full curve]

SMILES	Potency
COc1cc(OC)cc(C(=O)Nc2ccc3c(c2)N(C2CCCC2)C(=O)c2ccccc2S3)c1	inactive
N#Cc1c(NC2CCCCC2)nc(-c2ccco2)c2c1CCCC2	inactive
O=C(O)COc1ccc2c(c1)O/C(=C\c1ccco1)C2=O	active: 39.8 µM
O=S(=O)(c1ccc(Br)cc1)c1nc(-c2ccco2)oc1NCC1CCCO1 (stereo unspecified)	inconclusive: 56.2 µM [inhibitor, partial curve]
COc1ccc(NC(=O)c2cc(-c3ccco3)nc3ccccc23)cn1	active: 56.2 µM
O=C(O)c1csc(-n2nc(-c3ccccc3)cc2C(F)(F)F)n1	inconclusive: 79.4 µM [inhibitor, single point]
COc1cc(/C=C(\C#N)C(=O)Nc2ccc(C(=O)O)cc2)ccc1OC(=O)c1cccc(F)c1	inconclusive: 89.1 µM [inhibitor, single point]
O=C(C(=O)N1CCN(c2ccccc2Cl)CC1)c1c[nH]c2ccccc12	active: 50.1 µM
COc1cc(O)oc1C=Nc1ccccc1	inconclusive: 89.1 µM [inhibitor, single point]
COc1ccc(-c2[nH]nc3nc(-c4cc(OC)c(OC)c(OC)c4)cc(C(=O)O)c23)cc1	inconclusive: 35.5 µM [inhibitor, full curve, poor fit]
O=C(CN1CCOCC1)N(c1ccccc1)c1ccc2ccccc2c1	inactive
COC(=O)c1ccc(C(=O)N2CCCC(Nc3ccc(C(C)C)cc3)C2)nc1 (stereo unspecified)	inconclusive: 56.2 µM [inhibitor, partial curve, poor fit]
CCOc1ccc(NCc2cccn2-c2nnc(N3CCC(C(=O)NCCc4ccc(OC)c(OC)c4)CC3)s2)cc1	inconclusive: 22.4 µM [inhibitor, full curve]
COc1ccc(OCCN(C)C(=O)c2cccc(S(=O)(=O)N(C)c3ccccc3)c2)cc1	inactive
CCOC(=O)c1oc2ccc(/C=N/O)c(Cl)c2c1C	inconclusive: 100 µM [inhibitor, single point]
O=C(N/N=C/c1ccc([N+](=O)[O-])cc1)c1cccc(N2CCCC2=O)c1	active: 79.4 µM
Cc1ccc(OCC(=O)N(C)CCc2ccccn2)cc1	inconclusive: 89.1 µM [inhibitor, single point]
COc1cc(/C=C2\SC(=S)N(Nc3ncc(C(F)(F)F)cc3Cl)C2=O)cc(OC)c1OC	inconclusive: 22.4 µM [inhibitor, full curve]
C/C(=N\NC(=O)Cc1cccn1C)c1ccc2ccccc2c1	inconclusive: 70.8 µM [inhibitor, single point]
CN(C)c1ccc(CNC(=O)CCCn2ccc3cc(S(=O)(=O)N4CCCC4)ccc32)cc1	inconclusive: 39.8 µM [inhibitor, partial curve]
COc1ccccc1N1CCN(C(=O)c2cn(C)c3ccc(S(=O)(=O)N4CCOCC4)cc3c2=O)CC1	inactive
COc1ccc(Cl)cc1NC(=O)c1cc(C)nn1-c1ccccc1	inconclusive: 100 µM [inhibitor, single point]
CCCCCC1CCC(c2n[nH]c(=S)n2C)CC1 (stereo unspecified)	inconclusive: 89.1 µM [inhibitor, single point]
